This note sets out measurements from paper PMC12820563, “FoxP3 forms a head-to-head dimer in vivo and stabilizes its multimerization on adjacent microsatellites”.

Some of the results follow.

The test deals with T1, MBP-FoxP1dN (Mus musculus, UniProt P58462 326-579).
T1 sequence: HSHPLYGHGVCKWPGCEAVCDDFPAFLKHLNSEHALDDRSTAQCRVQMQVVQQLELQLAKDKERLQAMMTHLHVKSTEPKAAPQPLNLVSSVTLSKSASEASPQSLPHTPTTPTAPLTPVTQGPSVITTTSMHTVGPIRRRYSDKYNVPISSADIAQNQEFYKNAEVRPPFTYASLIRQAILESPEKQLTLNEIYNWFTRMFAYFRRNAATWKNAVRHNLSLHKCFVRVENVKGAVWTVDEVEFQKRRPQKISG
Briefly: PD-seq (MBP pull-down with sequencing); 20 mM Tris-HCl pH 7.5, 100 mM NaCl, 1.5 mM MgCl2, 0.4 uM protein, 0.1 uM dsDNA library, 30 min, room temperature, amylose pull-down; high values mean tight binding. To be noted: protein: recombinant; tags: His6-MBP; chain copies: 2; dsDNA, one strand shown. In short, it runs like this:
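In Tris pH 7.5 buffer with NaCl and MgCl2, 0.4 µM His6-MBP-tagged mouse FoxP3 or FoxP1 fragment lacking the N-terminus, from E. coli, met 0.1 µM Klenow-filled double-stranded degenerate DNA library for 30 min at room temperature. Three washes on amylose resin followed capture of the complexes, then proteinase K release of DNA, PCR barcoding and Illumina sequencing. Binding is taken as pooled-replicate reads-per-million enrichment of pull-down relative to input.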
In the case of “GATGATTGTTCTCCCAGCTGATGAATTCCATCCCTCGAGTAAACAAATTTTCCTAATCTTTCTGTTCAAGCGCCATCTAC”, the binding signal is 0.832 RPM ratio (pull-down/input).
For “GATGATTGTTCTCCCAGCTGATGAATTATGCGAATCGAGTAAACAAATTTTCCTAATCTTTCTGTTCAAGCGCCATCTAC” the value was 1.08 RPM ratio (pull-down/input); for “GATGATTGTTCTCCCAGCTGATGAATTCCAACCGTCGAGTAAACAAATTTTCCTAATCTTTCTGTTCAAGCGCCATCTAC”, 0.834 RPM ratio (pull-down/input); for “GATGATTGTTCTCCCAGCTGATGAATTTCCAGGGTCGAGTAAACAAATTTTCCTAATCTTTCTGTTCAAGCGCCATCTAC”, 0.663 RPM ratio (pull-down/input).
For “GATGATTGTTCTCCCAGCTGATGAATTAACGCCGTCGAGTAAACAAATTTTCCTAATCTTTCTGTTCAAGCGCCATCTAC” the value was 0.918 RPM ratio (pull-down/input); for “GATGATTGTTCTCCCAGCTGATGAATTGAATGTTTCGAGTAAACAAATTTTCCTAATCTTTCTGTTCAAGCGCCATCTAC”, 1.01 RPM ratio (pull-down/input).
“GATGATTGTTCTCCCAGCTGATGAATTTCTAATATCGAGTAAACAAATTTTCCTAATCTTTCTGTTCAAGCGCCATCTAC”: the binding signal was 1.09 RPM ratio (pull-down/input).
For “GATGATTGTTCTCCCAGCTGATGAATTCTCGACATCGAGTAAACAAATTTTCCTAATCTTTCTGTTCAAGCGCCATCTAC”, the binding signal is 0.911 RPM ratio (pull-down/input).
For the sequence “GATGATTGTTCTCCCAGCTGATGAATTATGCGTGTCGAGTAAACAAATTTTCCTAATCTTTCTGTTCAAGCGCCATCTAC”, the binding signal was 1.1 RPM ratio (pull-down/input).
As for “GATGATTGTTCTCCCAGCTGATGAATTCGAACCCTCGAGTAAACAAATTTTCCTAATCTTTCTGTTCAAGCGCCATCTAC”, the binding signal is 0.768 RPM ratio (pull-down/input).
Turning to “GATGATTGTTCTCCCAGCTGATGAATTGGCACATTCGAGTAAACAAATTTTCCTAATCTTTCTGTTCAAGCGCCATCTAC”, the binding signal is 0.995 RPM ratio (pull-down/input).
Turning to “GATGATTGTTCTCCCAGCTGATGAATTCGACGTTTCGAGTAAACAAATTTTCCTAATCTTTCTGTTCAAGCGCCATCTAC”, the binding signal is 0.886 RPM ratio (pull-down/input).
For “GATGATTGTTCTCCCAGCTGATGAATTACCTCTTTCGAGTAAACAAATTTTCCTAATCTTTCTGTTCAAGCGCCATCTAC” the value was 0.991 RPM ratio (pull-down/input); for “GATGATTGTTCTCCCAGCTGATGAATTTCGATCGTCGAGTAAACAAATTTTCCTAATCTTTCTGTTCAAGCGCCATCTAC”, 0.838 RPM ratio (pull-down/input); for “GATGATTGTTCTCCCAGCTGATGAATTAACTTGGTCGAGTAAACAAATTTTCCTAATCTTTCTGTTCAAGCGCCATCTAC”, 0.851 RPM ratio (pull-down/input).
To “GATGATTGTTCTCCCAGCTGATGAATTTCCAGTGTCGAGTAAACAAATTTTCCTAATCTTTCTGTTCAAGCGCCATCTAC” belongs 0.791 RPM ratio (pull-down/input); to “GATGATTGTTCTCCCAGCTGATGAATTCCTGCATTCGAGTAAACAAATTTTCCTAATCTTTCTGTTCAAGCGCCATCTAC”, 1.17 RPM ratio (pull-down/input); to “GATGATTGTTCTCCCAGCTGATGAATTCCAGTTCTCGAGTAAACAAATTTTCCTAATCTTTCTGTTCAAGCGCCATCTAC”, 0.7 RPM ratio (pull-down/input).
To “GATGATTGTTCTCCCAGCTGATGAATTAACCCCGTCGAGTAAACAAATTTTCCTAATCTTTCTGTTCAAGCGCCATCTAC” belongs 0.828 RPM ratio (pull-down/input); to “GATGATTGTTCTCCCAGCTGATGAATTATTGGGATCGAGTAAACAAATTTTCCTAATCTTTCTGTTCAAGCGCCATCTAC”, 1.2 RPM ratio (pull-down/input); to “GATGATTGTTCTCCCAGCTGATGAATTCCCCTATTCGAGTAAACAAATTTTCCTAATCTTTCTGTTCAAGCGCCATCTAC”, 0.844 RPM ratio (pull-down/input).
On to “GATGATTGTTCTCCCAGCTGATGAATTTGGAAAATCGAGTAAACAAATTTTCCTAATCTTTCTGTTCAAGCGCCATCTAC”, for which the binding signal was 1.06 RPM ratio (pull-down/input).
For “GATGATTGTTCTCCCAGCTGATGAATTGATAGGATCGAGTAAACAAATTTTCCTAATCTTTCTGTTCAAGCGCCATCTAC” the value was 0.98 RPM ratio (pull-down/input).
As to “GATGATTGTTCTCCCAGCTGATGAATTCTAGGACTCGAGTAAACAAATTTTCCTAATCTTTCTGTTCAAGCGCCATCTAC”, the binding signal was 0.793 RPM ratio (pull-down/input).
To “GATGATTGTTCTCCCAGCTGATGAATTATCTCGTTCGAGTAAACAAATTTTCCTAATCTTTCTGTTCAAGCGCCATCTAC” belongs 0.899 RPM ratio (pull-down/input).
Take “GATGATTGTTCTCCCAGCTGATGAATTTTGACAATCGAGTAAACAAATTTTCCTAATCTTTCTGTTCAAGCGCCATCTAC”: the binding signal was 1.26 RPM ratio (pull-down/input).
On to “GATGATTGTTCTCCCAGCTGATGAATTTTAACTTTCGAGTAAACAAATTTTCCTAATCTTTCTGTTCAAGCGCCATCTAC”, for which the binding signal is 0.872 RPM ratio (pull-down/input).
To “GATGATTGTTCTCCCAGCTGATGAATTTGACTGATCGAGTAAACAAATTTTCCTAATCTTTCTGTTCAAGCGCCATCTAC” belongs 0.785 RPM ratio (pull-down/input).
Regarding “GATGATTGTTCTCCCAGCTGATGAATTCGTATTGTCGAGTAAACAAATTTTCCTAATCTTTCTGTTCAAGCGCCATCTAC”, the binding signal was 2.07 RPM ratio (pull-down/input).
As for “GATGATTGTTCTCCCAGCTGATGAATTTTTCGTTTCGAGTAAACAAATTTTCCTAATCTTTCTGTTCAAGCGCCATCTAC”, the binding signal is 1.04 RPM ratio (pull-down/input).
For “GATGATTGTTCTCCCAGCTGATGAATTAAGGTGTTCGAGTAAACAAATTTTCCTAATCTTTCTGTTCAAGCGCCATCTAC” the value was 0.982 RPM ratio (pull-down/input).
